# Source: PubChem BioAssay AID686979 (National Center for Advancing Translational Sciences (NCATS), 2013)
# Hit rate of the full screen: of about 420,000 compounds, about 50,000 (12%) were called active. Inconclusive means that the source gave no clear call. Such entries were picked first, then a sample of the others. Calls come from the whole dose curve; as a rule, active = well fitted inhibition curve with a large enough effect; inconclusive = small, poorly fitted or top-dose-only effect; inactive = flat fitted curve, though single readings scatter. Potencies of inconclusive entries are left out as doubtful fits.
# Assay: qHTS for Inhibitors of human tyrosyl-DNA phosphodiesterase 1 (TDP1): qHTS in cells in presence of CPT; note: nearly all actives have a fitted effect of over 55% in size
# Details: chicken DT40 Tdp1-/-;hTDP1 cells + 20 nM CPT, ATP luminescence, 48 h; activity change, negative = growth inhibition: at 46.2 µM (top of the series)
# Procedure, shortened: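 Chicken DT40 Tdp1-/- cells stably complemented with human TDP1 were seeded at 400 cells/well in medium containing 20 nM camptothecin, exposed to pin-transferred compounds, and grown at 37 °C for at least 48 hr. Viability was read as ATP luminescence.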
# % is set by controls: 0 for no effect and ±100 for the full control effect; potency is the fitted concentration of half-maximal effect; tags give direction and shape of the fitted curve.
SMILES,Potency,"activity change, negative = growth inhibition"
COc1ccc(NC(=O)CC2C(=O)N(C)C(=S)N2CCc2ccc(F)cc2)cc1 (configuration not stated),"inconclusive [inhibitor, single point]",
CN(CC(=O)Nc1ccccc1C(F)(F)F)C(=O)c1cc2c(s1)CCCCC2,"inconclusive [inhibitor, single point]",
c1ccc(-n2ncc3c2ncn2nc(CSc4nc5ccccc5s4)nc32)cc1,"inconclusive [inhibitor, single point]",
[O]=[Bi][O][Bi]=[O],,inactive: 0.0297%
Cc1ccc(NC(=O)c2ccc(CN3C(=O)CCn4nc(C)cc43)cc2)c(Cl)c1,"inconclusive [inhibitor, single point]",
O=C1C(c2ccc(F)cc2)N(Cc2ccc3c(c2)OCO3)C(=O)CN1C1CCCCC1 (configuration not stated),,inconclusive: -36.2% [inhibitor]
O=C(NNC(=O)c1ccc(-n2cncn2)c([N+](=O)[O-])c1)c1cccc(Cl)c1,,inactive: -2.88%
O=C(CCCN1C(=O)/C(=C/c2ccccc2)SC1=S)Nc1cccc(O)c1,active: 18.4 µM,
CCOc1ccc(CCNC(=O)C2CCN(C(=O)c3cc4sccc4n3CC)CC2)cc1OCC,active: 16.4 µM,
CNc1ccnc(-c2ccccc2CN(C)C)n1,,inactive: 3.6%
Cc1ccc(NC(=O)CN2CCc3ccccc3C2)cc1S(=O)(=O)N(C)C,"inconclusive [inhibitor, single point]",
COCCNC(=S)NC12CC3CC(CC(C3)C1)C2,,inactive: -17.8%
O=[N+]([O-])c1ccc(N2CCN(CCO)CC2)cc1Sc1nc2ccccc2[nH]1,"inconclusive [inhibitor, single point]",
Cc1cccc(NC(=O)Cn2c(=O)ccc3cc(S(=O)(=O)N4CCCC4)ccc32)c1C,"inconclusive [inhibitor, partial curve]",
CC(=O)c1ccc(NC(=O)C2CCC(CNS(=O)(=O)c3cccs3)CC2)cc1 (configuration not stated),,inactive: 8.63%
COc1cccc(Cc2nc3ccccc3nc2SCC(=O)NCc2ccc(C)cc2)c1,"inconclusive [inhibitor, single point]",
Cc1ccc(NC(=O)c2ccc(NC(=O)c3ccccc3)cc2)cc1C,active: 13 µM,
CCc1nc2ccc(C(=O)NC3CCN(Cc4ccccc4)CC3)cn2c1N(CC)CCOC,"inconclusive [inhibitor, single point]",
CC1Cc2ccccc2N1C(=O)COc1nc2ccccc2nc1N1CCOCC1 (configuration not stated),active: 7.31 µM,
N#CCCn1c(=O)c(-c2cc(F)cc(F)c2)nc2cnc(Oc3cccc(Cl)c3)nc21,"inconclusive [inhibitor, single point]",
Cn1c(SCC(=O)NCCc2ccccc2)ncc(C(=O)Nc2ccccc2)c1=O,"inconclusive [inhibitor, single point]",
COc1ccc(C)cc1N/C(N)=N/c1nc(C)cc(C)n1,active: 20.6 µM,
CC(C)N(Cc1nc(-c2ccc(Cl)cc2)no1)C(=O)/C=C/c1ccccc1,"inconclusive [inhibitor, single point]",
CC(=O)Nc1ccc(NC(=O)C(C)OC(=O)c2ccccc2Sc2ccccc2C#N)cc1 (configuration not stated),"inconclusive [inhibitor, partial curve, poor fit]",

SMILES,Potency,"activity change, negative = growth inhibition"
Oc1c(CN2CCc3ccccc3C2)cc(Cl)c2cccnc12,active: 5.8 µM,
CCOc1ccc(NS(=O)(=O)c2ccc(NC(=S)NC(=O)C(C)C)cc2)cc1,active: 20.6 µM,
CN1C(=S)NC(C)(C)CC1(C)c1ccc(O)cc1O (configuration not stated),,inactive: -0.953%
COc1ccc(C(=O)NCCc2nnc(SCc3nc4ccccc4c(=O)[nH]3)n2C)cc1,,inactive: -2.08%
O=C(COc1ccc([N+](=O)[O-])cc1)Nc1ccc2c(c1)CCC2,"inconclusive [inhibitor, single point]",
COc1ccc(CCNC(=O)c2ccc3c(c2)nc2n3CCC(C)C2)cc1OC (configuration not stated),"inconclusive [inhibitor, single point]",
NS(=O)(=O)c1cccc(NC(=O)c2ccc(S(=O)(=O)N3CCCCCC3)cc2)c1,,inactive: -28%
Cc1nc(N2CCN(C)CC2)c2c(C)c(C(=O)Nc3ccc(F)cc3)sc2n1,"inconclusive [inhibitor, partial curve, poor fit]",
COc1cccc(/C=N/NC(=O)c2nnn(-c3nonc3N)c2C(C)C)c1OCc1ccc(F)cc1,"inconclusive [inhibitor, single point]",
COc1ccc(S(=O)(=O)Nc2ccc3c(c2)C(=O)N([C@H](C)CO)C[C@H](C)[C@@H](CN(C)S(=O)(=O)c2ccc(F)cc2)O3)cc1,"inconclusive [inhibitor, single point]",
O=C(N/N=C\c1ccc([N+](=O)[O-])s1)c1cncc(Br)c1,active: 5.17 µM,
Cc1noc(C)c1S(=O)(=O)N(CC(=O)NC1CCC(C)CC1)c1ccc(C(C)C)cc1 (configuration not stated),"inconclusive [inhibitor, single point]",
CCS(=O)(=O)N1CCN=C1SCc1ccc(F)cc1,,inactive: 2.74%
CCN(C)C1CN(Cc2cn(CCCC(=O)OC)nn2)S(=O)(=O)C1 (configuration not stated),,inactive: -7.6%
Cc1ncc(C[n+]2csc(CCOP(=O)(O)O)c2C)c(N)n1,,inactive: -10.1%
Cc1cc(C(F)(F)F)nc(-n2cc(-c3cccc(N)c3)nn2)n1,,inactive: -1.48%
COc1ccc(CCC(=O)N2CCN(S(=O)(=O)c3ccc4ccccc4c3)CC2)cc1,,inactive: -3.7%
C=CCc1cccc(C=Nc2ccc(Br)cc2)c1O,,inactive: -1.74%
COc1cc(/C=N/NC(=O)c2ccncc2)cc(OC)c1OC,,inactive: 14.3%
COc1cc(OC)cc(C(=O)c2c(C)c(C#N)c3ccccn23)c1,active: 2.31 µM,
CCOc1ccc(C(C)=O)cc1CSc1nnnn1-c1ccc(O)cc1,"inconclusive [inhibitor, single point]",
O=C(NCc1ccc(F)cc1)c1ccc2c(c1)nnn2C1CCCC1,"inconclusive [inhibitor, single point]",
CCOC(=O)c1[nH]c(C)c(CCC(=O)NCc2ccc(OC)cc2)c1C,,inactive: -2.14%
